In PMC5260975 one finds binding data, which are given here for three molecules.

Assay [1] concerns the target T1, ankyrin-repeat-containing, SH3-domain-containing, and proline-rich region-containing protein 2 (ASPP2), endogenous (human (endogenous in HCC-LM3)) (UniProt Q13625).
T1 sequence: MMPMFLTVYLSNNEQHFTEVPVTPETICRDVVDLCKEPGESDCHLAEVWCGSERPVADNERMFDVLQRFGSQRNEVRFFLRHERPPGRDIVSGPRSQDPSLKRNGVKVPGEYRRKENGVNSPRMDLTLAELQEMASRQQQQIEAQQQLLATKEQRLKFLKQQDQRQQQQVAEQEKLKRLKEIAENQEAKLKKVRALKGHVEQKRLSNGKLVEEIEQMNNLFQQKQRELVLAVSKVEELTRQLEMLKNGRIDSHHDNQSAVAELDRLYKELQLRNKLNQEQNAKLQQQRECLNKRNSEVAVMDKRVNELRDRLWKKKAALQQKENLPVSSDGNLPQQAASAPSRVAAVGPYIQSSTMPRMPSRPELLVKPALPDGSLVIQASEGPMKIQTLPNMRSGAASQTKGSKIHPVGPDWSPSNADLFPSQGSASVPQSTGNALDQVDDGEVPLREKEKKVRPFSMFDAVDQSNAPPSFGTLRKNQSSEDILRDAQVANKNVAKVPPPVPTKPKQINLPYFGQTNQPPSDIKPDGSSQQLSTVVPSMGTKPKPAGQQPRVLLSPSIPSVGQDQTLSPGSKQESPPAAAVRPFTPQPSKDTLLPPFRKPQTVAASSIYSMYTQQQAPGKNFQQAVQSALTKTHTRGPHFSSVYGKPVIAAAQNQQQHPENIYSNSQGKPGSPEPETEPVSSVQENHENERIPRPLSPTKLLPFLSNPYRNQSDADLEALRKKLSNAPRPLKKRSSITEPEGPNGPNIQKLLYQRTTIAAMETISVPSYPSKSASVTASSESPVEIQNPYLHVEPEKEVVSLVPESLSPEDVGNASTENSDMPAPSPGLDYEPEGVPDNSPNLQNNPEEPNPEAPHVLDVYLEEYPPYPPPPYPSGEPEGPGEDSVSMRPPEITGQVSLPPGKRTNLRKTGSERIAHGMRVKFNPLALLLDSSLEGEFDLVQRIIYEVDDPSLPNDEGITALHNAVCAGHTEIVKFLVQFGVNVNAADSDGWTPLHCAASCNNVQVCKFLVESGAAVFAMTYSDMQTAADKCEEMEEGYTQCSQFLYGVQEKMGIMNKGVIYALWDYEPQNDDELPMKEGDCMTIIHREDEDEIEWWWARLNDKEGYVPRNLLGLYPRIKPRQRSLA
Briefly: co-IP; HCC-LM3 lysates, immunoprecipitated with anti-ASPP2, western blot; control cells, cells transfected with pASPP2 and ASPP2-silenced cells. (In general: In western blotting, separated proteins are transferred to a membrane and probed.)

Assay [2] deals with p65/RelA, endogenous (human (endogenous in HCC-LM3)), Q04206. Briefly: co-IP; HCC-LM3 lysates, immunoprecipitated with anti-p65/RelA, western blot; with or without overexpression of ASPP2. The following applies: remark: other sources report otherwise.
Assay [3] addresses Flag-tagged BECN1[150-241] (UniProt Q14457). Put plainly: co-IP; HEK293T co-transfected with Flag-tagged BECN1 (full length or deletion mutants) and ASPP2-V5(1-360), EBSS 6 h at 24 h after transfection; IP with anti-Flag, western blot.

These are yes or no findings as the source states them, for the method shown. In cells and extracts the contact can be indirect. Some entries that bind do so weakly or less than the wild type. For part of these data: Tags and fused reporters may be left off the sequences shown.

B1: IκBβ, endogenous (protein, UniProt Q15653 1-356)
chain: MAGVACLGKAADADEWCDSGLGSLGPDAAAPGGPGLGAELGPGLSWAPLVFGYVTEDGDTALHLAVIHQHEPFLDFLLGFSAGTEYMDLQNDLGQTALHLAAILGETSTVEKLYAAGAGLCVAERRGHTALHLACRVGAHACARALLQPRPRRPREAPDTYLAQGPDRTPDTNHTPVALYPDSDLEKEEEESEEDWKLQLEAENYEGHTPLHVAVIHKDVEMVRLLRDAGADLDKPEPTCGRSPLHLAVEAQAADVLELLLRAGANPAARMYGGRTPLGSAMLRPNPILARLLRAHGAPEPEGEDEKSGPCSSSSDSDSGDEGDEYDDIVVHSSRSQTRLPPTPASKPLPDDPRPV
For B1, the binding result in assay [1] was “binds”.

B2: IκBα, endogenous, P25963 1-317 (protein)
chain: MFQAAERPQEWAMEGPRDGLKKERLLDDRHDSGLDSMKDEEYEQMVKELQEIRLEPQEVPRGSEPWKQQLTEDGDSFLHLAIIHEEKALTMEVIRQVKGDLAFLNFQNNLQQTPLHLAVITNQPEIAEALLGAGCDPELRDFRGNTPLHLACEQGCLASVGVLTQSCTTPHLHSILKATNYNGHTCLHLASIHGYLGIVELLVSLGADVNAQEPCNGRTALHLAVDLQNPDLVSLLLKCGADVNRVTYQGYSPYQLTWGRPSTRIQQQLGQLTLENLQMLPESEDEESYDTESEFTEFTEDELPYDDCVFGGQRLTL
B2: in assay [2], the binding entry is listed as “binds”.

B3: V5-tagged ASPP2(1-360) (domain or fragment, UniProt Q13625 1-360)
chain: MMPMFLTVYLSNNEQHFTEVPVTPETICRDVVDLCKEPGESDCHLAEVWCGSERPVADNERMFDVLQRFGSQRNEVRFFLRHERPPGRDIVSGPRSQDPSLKRNGVKVPGEYRRKENGVNSPRMDLTLAELQEMASRQQQQIEAQQQLLATKEQRLKFLKQQDQRQQQQVAEQEKLKRLKEIAENQEAKLKKVRALKGHVEQKRLSNGKLVEEIEQMNNLFQQKQRELVLAVSKVEELTRQLEMLKNGRIDSHHDNQSAVAELDRLYKELQLRNKLNQEQNAKLQQQRECLNKRNSEVAVMDKRVNELRDRLWKKKAALQQKENLPVSSDGNLPQQAASAPSRVAAVGPYIQSSTMPRMP
Regarding B3, in assay [3], the binding result is given as “binds”.
